In PubChem BioAssay AID463173 (ICCB-Longwood Screening Facility, Harvard Medical School, 2010):
Screen size: about 52,000 compounds; about 1,700 (3.3%) were called active. Cut-off read from the data, not from the text of the source: active = survival mostly below about 52% (no sharp cut-off); inactive = mostly above about 56%. The list shows a part of the results.

Test system: Wild type
Assay: growth inhibition of S. aureus wild type versus tarO mutant, primary screen, teichoic acid synthesis inhibitors, RN4220, OD600 (AID 463173)
Settings: S. aureus RN4220 wild type/DeltatarO growth, OD600, 18 h, hits give low values, screened at 18.75 µg/mL (by protocol)

SMILES	survival
Cc1cc(C)c(NS(=O)(=O)c2cc(-c3onc(C)c3C)ccc2C)c(C)c1	inactive: 70%
CC(=O)n1c(=O)oc2cc(Cl)ccc21	inactive: 110%
O=C(Nc1cccc(C(F)(F)F)c1)c1cc(S(=O)(=O)N2CCCC2)c[nH]1	inactive: 88%
COc1ccccc1-c1noc(-c2ccc(NCc3ccco3)c([N+](=O)[O-])c2)n1	inactive: 97%
S=C1NNC2(CC3CC2C2CCCC32)NN1 (stereo unspecified)	inactive: 111%
Cc1ccc(S(=O)(=O)N2CCCC(NC(=O)NCc3ccco3)C2)cc1 (stereo unspecified)	inactive: 114%
Cc1cccc(N2CCN(C(=O)c3ccc4c(Cl)c5c(nc4c3)CCCC5)CC2C)c1 (stereo unspecified)	inactive: 80%
COc1ccc(NC(=O)Cn2nnc(C(=O)NCc3ccc4c(c3)OCO4)c2N)cc1	inactive: 90%
O=C(NCc1ccccc1Cl)c1cnc(N2CCOCC2)c2ccccc12	inactive: 70%
Cc1ccc(-c2cc(-c3coc4ccc(Cl)cc4c3=O)c3c(n2)-c2ccccc2OC3)cc1	inactive: 68%
CCN(Cc1ccccc1)Cc1c(O)ccc2c(=O)c(-c3ccc(Cl)cc3)coc12	inactive: 86%
O=C(C1CCC(Cn2c(=O)c3sccc3n(Cc3ccccc3)c2=O)CC1)N1CCCCC1 (stereo unspecified)	inactive: 73%
N#CSc1ccc(N2CCCCC2)cc1	inactive: 109%
Cc1ccc(C)c(N2CCN(C(=O)CCNS(=O)(=O)c3ccc4c(c3)CCN4C(=O)C3CC3)CC2)c1	inactive: 71%
Cc1ccc2cccc(NC(=O)c3cccc4c(Cl)cccc34)c2n1	inactive: 69%
CCOc1ccc(NC(=O)CCc2nc3cccnc3n2-c2ccccc2)cc1	inactive: 102%
COC(=O)c1cc2c(ccn2-c2ccc(F)cc2)n1CC(=O)c1ccc(OC)cc1	inactive: 111%
CC1CCN(c2nc3nonc3nc2Nc2ccc(F)cc2)CC1	inactive: 103%
COc1ccc(S(=O)(=O)NCCS(=O)(=O)N2CCN(c3ccccc3)CC2)cc1OC	inactive: 93%
Cc1ccc(NC(=O)c2oc3ccccc3c2NC(=O)c2ccc(F)c(F)c2)cc1	inactive: 83%
COc1ccc(NC(=O)c2oc3ccccc3c2NC(=O)C23CC4CC(CC(C4)C2)C3)c(OC)c1	inactive: 58%
COc1ccc2c(c1)c(CC(=O)Nc1ccc(C(C)=O)cc1)c(C)n2C(=O)c1ccc(Cl)cc1	inactive: 71%

SMILES	survival
CCOC(=O)CSc1nnc(-c2ccc(S(=O)(=O)NCc3cccs3)cc2)o1	inactive: 107%
O=C(Nc1nc2ccc(Cl)cc2s1)c1cc(=O)c2ccccc2o1	inactive: 61%
CCc1cccc(CC)c1NC(=O)C(Cc1ccccc1)NS(=O)(=O)c1cccc2nsnc12 (stereo unspecified)	inactive: 74%
CCc1ccc(NC(=O)CSc2nc3c(oc4ccccc43)c(=O)n2-c2cccc(C)c2)cc1	inactive: 90%
O=c1[nH]c2ccccc2nc1/C=C(\O)c1ccccc1	inactive: 116%
CCc1cnc2c(c1SCc1ccccc1C)c(=O)n(C)c(=O)n2C	inactive: 65%
Cc1ccc(CNC(=O)CCCCCn2c(=O)c3sccc3n(CC(=O)Nc3ccc(C)c(F)c3)c2=O)cc1	inactive: 134%
CC(C)CN(CCCNC(=O)c1cc(=O)[nH]c2ccc(S(=O)(=O)N3CCCC3)cc12)CC(C)C	inactive: 136%
CCN1C(C(=O)c2ccccc2)=C(OC(=O)COc2ccc(OC)cc2)c2ccccc2S1(=O)=O	inactive: 78%
CCOC(=O)C1CCN(CN2C(=O)CCC2=O)CC1	inactive: 99%
CN1CCc2c(sc(NC(=O)CSc3ccc(F)cc3)c2-c2nc3ccccc3s2)C1	inactive: 124%
COc1cccc(C(=O)NC(=NCCc2c[nH]c3ccc(OC)cc23)Nc2nc(C)cc(C)n2)c1	inactive: 83%
Cc1ccc(Nc2sc(C(=O)c3ccccc3)c(N)c2C(=O)Nc2ccc(Cl)cc2)cc1	inactive: 47%
COc1cc2c(cc1OC)n(CC(=O)c1cccc(Cl)c1)c(=O)n1nc(CCn3nc(C)cc3C)nc21	inactive: 74%
CCOCCCNC(=O)c1cc(Sc2cccc(Cl)c2)nc2ccccc12	inactive: 71%
O=C(CCN1C(=O)c2ccccc2Sc2ncccc21)Nc1ccc(F)cc1F	inactive: 56%
COc1ccc(C2NC(=O)NC(C)=C2C(=O)Nc2ccccc2)cc1OC (stereo unspecified)	inactive: 90%
COc1cccc(C(=O)N2c3ccc(C)cc3C(C)(c3ccccc3)CC2(C)C)c1 (stereo unspecified)	active: -2%
Cc1ccccc1C(=O)Nc1sc2c(c1C(=O)N1CCCCC1)CCC(C)C2 (stereo unspecified)	inactive: 36%
O=C(NCc1cccnc1)C(=O)NCC(c1cccnc1)N1CCN(c2ccc(F)cc2)CC1 (stereo unspecified)	inactive: 95%
Cc1ccccc1C(=O)N/N=C1/SCC(=O)N1Cc1ccc2c(c1)OCO2	inactive: 107%
Cc1ccc(CC(=O)Nc2ccc3c(c2)N(C)C(=O)c2ccccc2S3)cc1	inactive: 128%

SMILES	survival
COC(=O)c1ccc2c(c1)N(CC(=O)Nc1ccc(OC)c(Cl)c1)C(=O)c1ccccc1S2	inactive: 54%
Cc1ccc(-n2nc3c(N4CCCC(C(=O)NCc5ccc(Cl)cc5)C4)nnc(C)c3c2C)cc1 (stereo unspecified)	inactive: 72%
Cc1ccc(-c2nn3c(=O)cc(CN4CCN(C(=O)/C=C/c5ccccc5)CC4)nc3s2)cc1	inactive: 86%
CCOC(=O)c1ccc(NC(=O)C(Cc2ccccc2)N2Cc3ccccc3C2=O)cc1 (stereo unspecified)	inactive: 73%
CCCOc1ccc(C(=O)Nc2ccc3oc(-c4cccc(Cl)c4Cl)nc3c2)cc1	inactive: 84%
CCc1ccc(-c2cn3c(n2)sc2cc(C(=O)NCCC4=CCCCC4)ccc23)cc1	inactive: 82%
CCOC(=O)c1ccc(NC(=O)CSc2cn(CC(=O)N3CCCC3)c3ccccc23)cc1	inactive: 89%
Nc1nc2c(ccc3[nH]c(=O)c(=O)[nH]c32)s1	inactive: 102%
CC(C)c1ccc(NC(=O)Cn2cc(S(=O)(=O)Cc3cccc(Cl)c3)c3ccccc32)cc1	inactive: 81%
O=C(CCS(=O)(=O)c1nc(-c2cccs2)cc(C(F)(F)F)n1)Nc1cc(Br)ccc1O	inactive: 20%
Cc1ccc(NC(=O)Cn2c(=O)n(Cc3nc(C)no3)c(=O)c3cc4c(cc32)OCO4)c(C)c1	inactive: 75%
CCOc1ccccc1C(=O)N(Cc1cc(OC)c(OC)c(OC)c1)c1ccccn1	inactive: 82%
CCCn1c(SCc2nc(-c3ccccc3OCC)no2)nnc1-c1ccc(Cl)cc1	inactive: 78%
COC(=O)CSc1nnc(-c2ccco2)n1Cc1ccco1	inactive: 98%
CC(C)c1ccc(NC(=O)CSc2nc(=O)n(Cc3ccccn3)c3c2CCC3)cc1	inactive: 136%
N#Cc1nc(COc2cccc(Cl)c2)oc1NCCc1ccccc1	inactive: 19%
Cc1ccc(CCNC(=O)c2ccc3c(c2)nc2n3CCCCC2)cc1	inactive: 135%
COC(=O)CNC(=O)C1CCN(S(=O)(=O)c2cccc3nsnc23)CC1	inactive: 89%
Cc1ccc(C(=O)c2c(N)c(C(=O)Nc3ccccc3Cl)c3ccccn23)cc1	inactive: 96%
CCOc1ccc(OCC(=O)NCCS(=O)(=O)N2CCN(c3ccccc3F)CC2)cc1	inactive: 74%
Cc1sc2ncn(CC(=O)Nc3cccc(C(F)(F)F)c3)c(=O)c2c1S(=O)(=O)N1CCN(C)CC1	inactive: 75%
COc1ccc(S(=O)(=O)Nc2ccc(-c3ccc(N4CCCC4)nn3)cc2)cc1F	inactive: 75%

SMILES	survival
COc1cccc(C(=O)CN2C3=NCCN3c3ccccc32)c1	inactive: 108%
CN(c1ccc(F)cc1)S(=O)(=O)N1CCCC(C(=O)NCc2cccc(Br)c2)C1 (stereo unspecified)	inactive: 85%
Cc1ccccc1Cc1c(C)nc2nc(SCC(=O)N(C)c3ccccc3)nn2c1C	inactive: 70%
Cc1c(C(=O)N2CCC(C)CC2)c(S(=O)(=O)NCc2ccc(Cl)cc2)c(C)n1C	inactive: 133%
C=CCN(CC=C)C(=O)COc1ccc(Cl)cc1Cl	inactive: 102%
CC1=C(C(=O)Nc2ccc(C)cc2C)C(c2ccc([N+](=O)[O-])cc2)n2ncc(C(=O)Nc3ccc(F)cc3)c2N1 (stereo unspecified)	inactive: 75%
Cc1ccc(-n2c(=O)c3c(cnn3C)n(CC(=O)Nc3ccc(C)cc3C)c2=O)cc1	inactive: 71%
CC1(C)N([O-])C2=C(CCCC2)[N+]1=O	inactive: 95%
CC(=O)c1ccc(N2CCN(C(=O)CCC(=O)Nc3ccc4nc(N5CCCCC5)cc(C)c4c3)CC2)cc1	inactive: 83%
CCN(CC)c1ccc2cc(-c3nc(-c4cccs4)no3)c(=O)oc2c1	inactive: 98%
CCCCN1C(=O)c2[nH]nc(-c3ccccc3O)c2C1c1ccc(OCc2ccccc2)cc1 (stereo unspecified)	inactive: 69%
COc1ccc(S(=O)(=O)NCCc2csc3nc(-c4cccc(C)c4)nn23)cc1F	inactive: 67%
CC1CCN(S(=O)(=O)c2ccc3c(c2)c(=O)c(C(=O)NCCc2ccccc2)cn3C)CC1	inactive: 86%
COc1ccccc1CNC(=O)c1c(O)nc2c(C)cccn2c1=O	inactive: 71%
COc1ccccc1NC(=O)CSc1nnc(NC(=O)Nc2ccc(C)cc2)s1	inactive: 49%
Cc1ccc(S(=O)(=O)N2CCCc3cc(NS(=O)(=O)c4cccc(Cl)c4)ccc32)cc1	inactive: 54%
CN(C)CCNC(=O)c1ccc2c(c1)NC(=O)C(CS(=O)(=O)Cc1cccc(Br)c1)N2 (stereo unspecified)	inactive: 120%
CC(=O)c1ccc(NC(=O)CSc2nnc3ccc(-c4ccc(Br)cc4)nn23)cc1	inactive: 65%
COc1ccc2c(c1)cc1c(=O)n(CC(=O)NC(C)C)nc(C)n12	inactive: 78%
Cn1c(CS(=O)(=O)c2ccc(Cl)cc2)c(C#N)c2ccccc21	inactive: 103%
